# Test results reported in the supplement of paper PMC11417369.
# ± gives the standard deviation of the averaged measurements. The list shows a part of the results.
# System: PfAP2-LT AP2 domain (GST-tagged)
# Assay: gcPBM binding intensity (ln(normalized median fluorescence intensity)); higher = stronger DNA binding
# Outline: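 Probes on an Agilent 4 × 180k array were primer-extended, double-stranded and 36 bp long, taken from intergenic genomic regions, with negative controls added. GST-tagged P. falciparum DNA-binding domains from E. coli, about 25 μg on average, were applied to the array for 1 h in 1× PBS containing 1% milk, 0.2 mg/ml BSA, 0.5% salmon testes DNA and 0.03% Triton X-100. Binding intensity, obtained after Alexa488 anti-GST antibody detection and a 488 nm scan, is the highest Masliner-normalised natural-log median intensity across replicate spots of either probe orientation.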
row,Sequence,gcPBM binding intensity (ln)
1,ACAAAACAAAACAAAAGTACACAAAATAAATAAGAT [XGTACX_site6497],9.32 ± 0.59
2,AATCCTTAAAATTAACGTACGAAATGAATTTATTAA [XGTACX_site956],8.46 ± 0.33
3,TGGAGGTCATTACACAGTACCCAGGAAATCTACGGA [XGTACX_site2004],8.61 ± 0.62
4,ATAAATAAATACTAGGCACACACACCGATATATATA [CACACA_site8649],9.76 ± 0.22
5,AAAATAAACCCAGACACACTCATTAAAAAATATCAT [CACACA_site5903],9.08 ± 0.47
6,TATTAATCCTTTTGCTTGGAAACATTCAAAAGGAAG [CACACA_negctrl_site1129],8.18 ± 0.41
7,ATATATATAAAATATGGTACAGAAAAAGTCTTGTTT [XGTACX_site8868],8.96 ± 0.41
8,TTCTGTCAATATGCTTGTACGAAATATTTCGTAATT [XGTACX_site3182],8.95 ± 0.33
9,ATGTATATATTCAATTGTACATGTTATATTTACACA [XGTACX_site1125],8.82 ± 0.47
10,ATTGTATTAAAATGCACACATATCAAGAGGAATTTT [CACACA_site283],8.99 ± 0.29
11,AAAGAATAATTAAATACACACATATTGCAGTAAAAA [CACACA_site7201],8.93 ± 0.51
12,TGTAAAATATAAAAAGTGCATTTCTTTTAATATGAT,8.49 ± 0.51
13,ATATTAAAATTTTAATGTACATGCGTATGTAGGAAT [XGTACX_site1673],9.23 ± 0.38
14,TATATTATATTTTTATGTACTTATTTATTTTGTTTC [XGTACX_site6145],8.93 ± 0.49
15,AACATATATTTTTAATGTACAAGGTTGTAAAGAACT [XGTACX_site1405],8.96 ± 0.53
16,AAAGATATAAATTACTGTACTAATGAAATTGGTAAA [XGTACX_site3582],8.57 ± 0.42
17,TTAAATAATGCCACCAGTACCCACTGAAAGAAAAAA [XGTACX_site5013],8.82 ± 0.49
18,CAATTGATATTGAAATGTACTTTTTAGATGAACCTT [XGTACX_site2354],8.59 ± 0.4
19,TATATTAAAATTTACTGTACTTTTTTTATTTTAAAA [XGTACX_site4077],8.36 ± 0.46
20,AAGATAACAAGTAATCAATCTAATTATTAATTATAT [CACACA_negctrl_site1713],8.52 ± 0.46
21,AAAAGAAAAATGTCATATGATATCATATATTTTATA [GTGCAC_negctrl_site185],8.52 ± 0.49
22,AAAAATATGTGATAATGTACTTTTCATTTTTATTTT [XGTACX_site8544],8.63 ± 0.46
23,ATAATTATATATATATGTACATATTATATATATATA [XGTACX_site4526],8.79 ± 0.33

row,Sequence,gcPBM binding intensity (ln)
1,ATATACATATATATATGTACTGAAAAGAAAAGAATT [XGTACX_site150],8.88 ± 0.39
2,CATAAATACATACATACACACATATTTATATTTATA [CACACA_site7071],9.16 ± 0.4
3,TGTTTTTAAATTTAAATCAAAAAATAAAATAAAATA [GTGCAC_negctrl_site355],8.19 ± 0.46
4,TACATATATATAAATACACACACACCCACCTTATAA [CACACA_site9346],9.88 ± 0.15
5,TTTTTATTTTATAATATATTCCTTTTCCTTTCTTTC [CACACA_negctrl_site245],8.54 ± 0.69
6,ATACATATACACATATGTACATATGAAAAGAAAAAT [XGTACX_site6445],9.12 ± 0.47
7,TTATTAGAAAAATGCACACCAAAAAAAAAAAAAAAA [CACACA_site2522],8.79 ± 0.39
8,TATATATATTGTGTATGTACATATATATAAATATTG [XGTACX_site433],8.71 ± 0.38
9,AATATAATATAATGCACACATAAACAAAAAAAAAAT [CACACA_site1304],9.29 ± 0.41
10,TTCATTTGAAAACTGTGTACTTAAAAATATACATAT [XGTACX_site176],8.61 ± 0.44
11,ATATATTTAAATAAATGTACAAATCATAAATTCAAG [XGTACX_site1417],8.73 ± 0.42
12,TATATATTTTATTATTGTACGAATTATTTATTTTAC [XGTACX_site8105],8.81 ± 0.49
13,TACATCATCTATAAGGTGCATTTTAGTTCTATTAAA,8.48 ± 0.42
14,TTTTTTCTAATATCTTTGCCTTTTTCTTTATTTATT [CACACA_negctrl_site1053],8.7 ± 0.66
15,ATATATATATATATATGTACATATGTATGTGTTTGT [XGTACX_site397],9.915 ± 0.0071
16,TATACTCATTTTTATACACACTTGTTTTATAAAACG [CACACA_site4561],8.86 ± 0.42
17,AAATTTATTATGAACATACACACAAAAAAAAAAAGT [CACACA_site2053],9.3 ± 0.39
18,CTATATGTATAAAGTTGTACAGTTTTTCAAAGTTAA [XGTACX_site6652],8.53 ± 0.43
19,TACTTTTATATAGAAAGTACATACAATTCATAGAAT [XGTACX_site2182],8.51 ± 0.4
20,TTTTTTTTTTTTTTGTGTACATATAATGCACATTAT [XGTACX_site6505],8.72 ± 0.45
21,TATTGAAACCCACACGAACACACGTATTTCATAAAC [CACACA_site251],9.05 ± 0.36
22,TATAAAAAGCATAACACACACATGTCAATATAAATA [CACACA_site6648],9.3 ± 0.28
23,ATGGACATTTTATAAATCACAATGGATATTTTATAA [CACACA_negctrl_site1830],8.41 ± 0.42

row,Sequence,gcPBM binding intensity (ln)
1,GTTTTACACAGACATGCATGTGAAAATTTGATGGTA [TGCATGCA_site308],9.15 ± 0.35
2,TATCATCATGTATGTACACACATACCTATATTATGT [CACACA_site6768],9.38 ± 0.43
3,TTTATTTCTATATTTACATGCAAAGGGTTAGTTATA [TGCATGCA_site983],8.54 ± 0.38
4,GATCTTTTTTTTCTTACTTTACAATTTTTTTTTTAC [XGTACX_negctrl_site101],8.74 ± 0.53
5,TTTTTTTTTTTCATGTGTACATATATTTTCACTTTA [XGTACX_site4475],8.94 ± 0.57
6,AAGAAAAAGAATAGACGGACAACTAATATAAAATAT [XGTACX_site7905],8.98 ± 0.54
7,AAAAGTAACAAAGCTACACACATTTAAATAAACATA [CACACA_site1421],9.05 ± 0.5
8,AAAATAACAAAATAAAGTACTTTTAAAAGATATAAT [XGTACX_site7632],8.87 ± 0.57
9,GATTTTCTAATTTCTACACACATATAAGAATATTCA [CACACA_site7340],8.82 ± 0.39
10,TTTTTAATTCAAACAATAATATGTTATATTTCAAAT [TGCATGCA_negctrl_site27],8.21 ± 0.41
11,TGTATAAAACATGGGTGTACTGAACTCAATCATATA [XGTACX_site1215],8.78 ± 0.36
12,TAAAATTATATAAAGGAACACACATTTTATTTTATT [CACACA_site8423],8.62 ± 0.49
13,TCATTGTTAAGCTGAAGTACTTATAATTACATCGAG [XGTACX_site6340],8.67 ± 0.33
14,AATATATTTTAATATACACACATATCTGCTCTTTAA [CACACA_site6130],8.94 ± 0.41
15,TGTCAATCATATAAATGTACATTTTAAATGAGGTGT [XGTACX_site7391],8.84 ± 0.34
16,TATTAGCATGTTATTACACACAATATAAAATATATA [CACACA_site1401],8.82 ± 0.34
17,GAAAAGAAAAATAAACGTACATAAATATTAACATTA [XGTACX_site8213],8.77 ± 0.51
18,CAAATAAAAATAAGGAGTACAATTAAAAAAGGAAGG [XGTACX_site4366],8.89 ± 0.57
19,AAAATAAAAAAGTGTACACATATTAAAATGTATTTA [CACACA_site4424],8.82 ± 0.37
20,ATTATATAAATTATATGTACGTATTTTTTTTTTTTT [XGTACX_site1908],8.66 ± 0.45
21,AAATTATGAACATATTGTACATATATATATATATAT [XGTACX_site8269],9.72 ± 0.028
22,AATTAAATTACTTATACACACATAAAATGTCTGTAT [CACACA_site997],9.1 ± 0.38
23,CATGTATGTACCATGGTGCAACAATATTTTTAACAA [GTGCAC_site9597],8.67 ± 0.48

row,Sequence,gcPBM binding intensity (ln)
1,TTTGGGATAAAACAAAGTACTAACAAAATATATAAT [XGTACX_site8240],8.76 ± 0.45
2,ATTCTTGTTATATAAGGTACAGAACAAAATATAAAA [XGTACX_site5510],8.63 ± 0.42
3,TGCATTTTACTTGTTACACACATATAAAATTAACCA [CACACA_site7387],8.82 ± 0.42
4,TTTTTCTATTCCATTCAACACACAAAAATGTATGCT [CACACA_site8268],8.9 ± 0.41
5,AAAGTTTTAAGAAAATGTACATAAGTATACATATAT [XGTACX_site1293],8.72 ± 0.47
6,AAATGGAGTTAATATTGTACATATATATATATATAT [XGTACX_site5452],9.46 ± 0.38
7,TTTTTTTTTTTTTTAACACACATATAAATATTTTTC [CACACA_site6985],8.66 ± 0.51
8,TTTTATTATATGGAGGTGCATATATAATAATATAAT [GTGCAC_site9477],8.48 ± 0.3
9,ATCGGTAATATTAACACACACATTTATTTATATTTA [CACACA_site6638],9.13 ± 0.33
10,TTCTTTTTAAATATACTAATTATGTATAAAACAGAA [GTGCAC_negctrl_site131],8.12 ± 0.49
11,ATGTATGTAATAAAAAGTACATATGTTCATAATAAA [XGTACX_site842],9.02 ± 0.42
12,TTTTCATATATTTATTGTACATATTACATATATAAT [XGTACX_site2425],8.89 ± 0.38
13,TTTTATAAATATTTTTGTACACATTTAAATATTATT [XGTACX_site4973],8.64 ± 0.45
14,ATTTATAAATCAAAGTGTACATATGTTTTATTTTTT [XGTACX_site804],8.86 ± 0.43
15,TTTTTTTAATAAAAGTGTACCAAATTATATACACAT [XGTACX_site6811],8.69 ± 0.45
16,AGAGAGAACGGTATAACATGCAATAAATTTCAGAAG [TGCATGCA_site423],8.91 ± 0.49
17,TTTTTTTTTTTTTGTACATGCAAATATTATGAACAC [TGCATGCA_site571],8.63 ± 0.42
18,AACACATACATATATGCACACATTTTATTCCATTAT [CACACA_site2834],9.31 ± 0.33
19,GACAAATTAATCGATTGTACACAATTTGTTTCGTTG [XGTACX_site35],9.05 ± 0.45
20,TTCACATATATATAACGTACATTATTATTATTCTGA [XGTACX_site6006],8.69 ± 0.44
